# In the supplement of paper PMC8728848:
# The list shows a part of the results.
# How the values were obtained:
# Test in all cases: glycan array binding signal (z-score within array); higher = stronger binding
# Settings in all cases: glycan notation: IUPAC condensed, linker removed
# [1] = target: Fuc(a1-2)Gal
# In short: (§1)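 Columns mapping to the same glycan were averaged after glycan names were converted to IUPAC-condensed notation. The data come from 3228 arrays in the Consortium for Functional Glycomics database, limited to those with an available protein sequence. Binding is reported as a within-array Z-score averaged across arrays of one protein sequence and across linkers.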
# [2] = target: Fuc(a1-2)Gal(b1-3)GalNAc
# In short: as §1
# [3] = target: Fuc(a1-2)Gal(b1-3)GalNAc(b1-3)Gal
# In short: as §1
# [4] = target: Fuc(a1-2)Gal(b1-3)GalNAc(b1-3)Gal(a1-4)Gal(b1-4)Glc
# In short: as §1
# [5] = target: Fuc(a1-2)Gal(b1-3)GalNAc(b1-4)[Neu5Ac(a2-3)]Gal(b1-4)Glc
# In short: as §1
# [6] = target: Fuc(a1-2)Gal(b1-3)GlcNAc
# In short: as §1
# [7] = target: Fuc(a1-2)Gal(b1-3)GlcNAc(b1-3)Gal(b1-4)Glc
# In short: as §1
# [8] = target: Fuc(a1-2)Gal(b1-3)[Fuc(a1-4)]GlcNAc
# In short: as §1
# [9] = target: Fuc(a1-2)Gal(b1-4)Glc
# In short: as §1
# [10] = target: Fuc(a1-2)Gal(b1-4)Glc6S
# In short: as §1
# [11] = target: Fuc(a1-2)Gal(b1-4)GlcNAc
# In short: as §1
# [12] = target: Fuc(a1-2)Gal(b1-4)GlcNAc(b1-3)Gal(b1-4)GlcNAc
# In short: as §1
# [13] = target: Fuc(a1-2)Gal(b1-4)GlcNAc(b1-3)Gal(b1-4)GlcNAc(b1-3)Gal(b1-4)GlcNAc
# In short: as §1
# [14] = target: Fuc(a1-2)Gal(b1-4)GlcNAc6S
# In short: as §1
# [15] = target: Fuc(a1-2)Gal(b1-4)[Fuc(a1-3)]GlcNAc
# In short: as §1
# [16] = target: Fuc(a1-2)Gal(b1-4)[Fuc(a1-3)]GlcNAc(b1-3)Gal(b1-4)[Fuc(a1-3)]GlcNAc
# In short: as §1
# [17] = target: Fuc(a1-2)Gal(b1-4)[Fuc(a1-3)]GlcNAc(b1-3)Gal(b1-4)[Fuc(a1-3)]GlcNAc(b1-3)Gal(b1-4)[Fuc(a1-3)]GlcNAc
# In short: as §1
# [18] = target: Fuc(a1-2)Gal6S(b1-4)Glc
# In short: as §1
# [19] = target: Fuc(a1-2)Gal6S(b1-4)Glc6S
# In short: as §1
# [20] = target: Fuc(a1-2)Gal6S(b1-4)GlcNAc
# In short: as §1
# [21] = target: Fuc(a1-2)GlcNAc
# In short: as §1
# [22] = target: Fuc(a1-2)[Gal(a1-3)]Gal
# In short: as §1
# [23] = target: Fuc(a1-2)[Gal(a1-3)]Gal(b1-3)GlcNAc
# In short: as §1
# [24] = target: Fuc(a1-2)[Gal(a1-3)]Gal(b1-4)Glc
# In short: as §1
# [25] = target: Fuc(a1-2)[Gal(a1-3)]Gal(b1-4)GlcNAc
# In short: as §1
# [26] = target: Fuc(a1-2)[Gal(a1-3)]Gal(b1-4)[Fuc(a1-3)]GlcNAc
# In short: as §1
# [27] = target: Fuc(a1-2)[Gal(a1-4)]Gal(b1-4)GlcNAc
# In short: as §1
# [28] = target: Fuc(a1-2)[GalNAc(a1-3)]Gal
# In short: as §1
# [29] = target: Fuc(a1-2)[GalNAc(a1-3)]Gal(b1-3)GlcNAc
# In short: as §1
# [30] = target: Fuc(a1-2)[GalNAc(a1-3)]Gal(b1-4)Glc
# In short: as §1
binder,measurement,setting,value
"Mindin (Homo sapiens), Q9BUD6 (protein) MENPSPAAALGKALCALLLATLGAAGQPLGGESICSARALAKYSITFTGKWSQTAFPKQYPLFRPPAQWSSLLGAAHSSDYSMWRKNQYVSNGLRDFAERGEAWALMKEIEAAGEALQSVHEVFSAPAVPSGTGQTSAELEVQRRHSLVSFVVRIVPSPDWFVGVDSLDLCDGDRWREQAALDLYPYDAGTDSGFTFSSPNFATIPQDTVTEITSSSPSHPANSFYYPRLKALPPIARVTLVRLRQSPRAFIPPAPVLPSRDNEIVDSASVPETPLDCEVSLWSSWGLCGGHCGRLGTKSRTRYVRVQPANNGSPCPELEEEAECVPDNCV",glycan array binding signal (z-score),[1],-0.273
same,glycan array binding signal (z-score),[2],-0.365
same,glycan array binding signal (z-score),[3],-0.28
same,glycan array binding signal (z-score),[4],-0.231
same,glycan array binding signal (z-score),[5],-0.183
same,glycan array binding signal (z-score),[6],-0.276
same,glycan array binding signal (z-score),[7],-0.264
same,glycan array binding signal (z-score),[8],-0.24
same,glycan array binding signal (z-score),[9],-0.24
same,glycan array binding signal (z-score),[10],-0.385
same,glycan array binding signal (z-score),[11],-0.27
same,glycan array binding signal (z-score),[12],-0.186
same,glycan array binding signal (z-score),[13],0.4
same,glycan array binding signal (z-score),[14],-0.37
same,glycan array binding signal (z-score),[15],-0.185
same,glycan array binding signal (z-score),[16],0.005
same,glycan array binding signal (z-score),[17],-0.231
same,glycan array binding signal (z-score),[18],-0.378
same,glycan array binding signal (z-score),[19],-0.173
same,glycan array binding signal (z-score),[20],0.142
same,glycan array binding signal (z-score),[21],-0.191
same,glycan array binding signal (z-score),[22],-0.31
same,glycan array binding signal (z-score),[23],-0.103
same,glycan array binding signal (z-score),[24],-0.248
same,glycan array binding signal (z-score),[25],-0.339
same,glycan array binding signal (z-score),[26],-0.133
same,glycan array binding signal (z-score),[27],0.614
same,glycan array binding signal (z-score),[28],-0.311
same,glycan array binding signal (z-score),[29],-0.329
same,glycan array binding signal (z-score),[30],-0.308
